From paper PMC9428466, “Computational prediction and experimental validation of Salmonella Typhimurium SopE-mediated fine-tuning of autophagy in intestinal epithelial cells” (Frontiers in Cellular and Infection Microbiology, 2022) come the findings set out here.

For this assay, the target named is T1, GFP-SopE (Salmonella Typhimurium, UniProt O52623 1-240).
T1 construct: SopE, SPI-1 secreted effector (GEF mimic) of Salmonella enterica serovar Typhimurium; also called Salmonella effector SopE; source: HEK293, transfected, in lysate
T1 sequence: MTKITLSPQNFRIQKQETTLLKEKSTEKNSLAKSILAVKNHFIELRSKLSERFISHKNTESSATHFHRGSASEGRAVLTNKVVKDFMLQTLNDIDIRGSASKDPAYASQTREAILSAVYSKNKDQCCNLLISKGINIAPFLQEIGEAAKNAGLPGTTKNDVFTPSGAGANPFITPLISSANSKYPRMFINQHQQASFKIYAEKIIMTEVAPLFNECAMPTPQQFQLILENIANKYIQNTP
As to the kind of experiment: co-IP; GFP-Trap magnetic beads on cleared lysates of co-transfected HEK293 cells, overnight at 4°C; lysis buffer 20 mM Tris pH 7.5, 0.5% Triton X-100, 150 mM NaCl, 2 mM EDTA, with benzonase; four washes; anti-Myc and anti-GFP blots, densitometry. The following applies: partners not purified.

Where only a bound is given, the exact number is not on record here.

B1: BirA-Myc-SP1 (natural protein)
chain: not shown
notes: Transcription factor SP1, human; Construct is Addgene plasmid #167726; also called host SP1 transcription factor; source: HEK293, transfected, in lysate
Consider B1, for which the “fold enrichment of SP1 in the co-IP against GFP alone” value is over 6 fold.
